The RNAGym collection of RNA variant scans (doi:10.7554/elife.90254)
The source gives no read counts; variants with many changes may rest on few reads.

B1: LINE1-mini (parent)
chain: GGCAGAGCUCAACACAGCGUGGCAAAGUGGCUGUGGCUAGACUGCC

Variants of: B1
Assay: self-cleavage, relative activity (ratio to wild type); higher = more cleavage; in vitro, sequencing; the parent is a self-cleaving ribozyme

Variant | self-cleavage
G5A A12C C15A G29U U38G A39G | 0
G19C G22U G27C C45A | 0.43
C10U G17A U38C C42U | 0.01
C8U A11G C23A A26U U43C | 0.02
C8U A14U G22A G30U | 0.24
C3U G17A G27C G36C | 0.05
C3A G27A C42A C45G | 0.2
A11G C23G G36U C42A | 0
C8U G30A G44A | 0.17
G2A C10G A16C C37U G44C | 0.02
G7A C8U C42A C46A | 0.06
C10U C13U G22U | 0.03
A16U U20C A24U G44U C45G | 0.05
U9A A25U A39G G40C | 0.03
A4C C15G A24G G27C G30U | 0.01
G1A A4C U34A | 0.03
C3U A12U G22U C31A G33A | 1.21
G5A A14C G17U A25G A26C C31A G36U | 0.01
A25G C31U A39U | 0.05
C3G A4G C10U U28G U38G G44A | 0.02
C13A G27C U32C U43C | 0.2

Variant | self-cleavage
G17C G21C G29U C31U | 0.06
A11C A12C U32A | 0.03
A6G C8U A16G G19C G22A U28A A39U U43G | 0.01
A4G C23A A39U C46G | 0.06
A6C A11C G33A G44A C46A | 0
A6G G21U G27C | 0.1
G19U G36U G40C | 0.13
A14C A16C G35C | 0.05
A14U A25G C31A U32C C45A | 0.04
A12C C15A G19C G21C | 0.01
G5U A16U C23A G40A A41U | 0.02
C18A G19C U20G U32A | 0.07
C31A G35U C37A | 0
G2A C13G G35A A41C | 0.1
A11C U34G C37U A39C | 0.01
G1U A6G C31A G36C C37A | 0.01
A12G G17A G27A C37U | 0.03
A4C A11U G33C C37G | 0.02
C15G G29U C45U C46G | 0.11
G22U C23G U32A | 0.04
U9G G29U G40A | 0.1

Variant | self-cleavage
A14G G19A C23G A39G | 0.03
A26U G40U C46U | 0.05
C3A G21U C31U G40U | 0.12
C10A G22U C31U U38C | 0.11
G1U A4C A6G U9G C18G C23G | 0.05
G30C G44A C45G | 0.47
G1A A14G G17U C18U A39G | 0.02
G7C G17C C31A | 0.12
G2U A6U G33A | 0.07
U9A G19U C37G | 0.04
C10U G22A U28A G36A U43C | 0.03
C3G C23U U32C C45U | 0.09
C3U C10U G22C G27C | 0.04
G1A A25U G29U C46G | 0.36
G19U C31U G35A | 0.02
G7C A16U U28C A41U | 0.13
G2C C8U G22C C31A | 0.03
G22U A39U G44A C45U | 0
U9C A25C U32C G36C C42U U43A | 0.01
G7A A11G G29C G40A | 0.01
C23G G30A U34G G36U | 0.03

Variant | self-cleavage
C10A U34A C45A | 0.02
A14G C23A U28G U38G | 0.01
C8A U20C G33U | 0.06
A6C G19U G29U A39U | 0.64
C13A A39G G40A | 0.01
C10U G17C A25G | 0.29
C3G C8G U9A G21A G29U | 1.98
C3A U43C C46U | 0.08
A11G G27A U28G G33A | 0.01
A4U A24U G27A G29C | 0.12
U9A C31G C42U | 0.05
G27C U38C G44U | 0.08
A11G C13G G36U G40C | 0.01
C3A C31U G35A | 0.08
C8U C13A A14G A25C A26U U32C C42U U43G | 0.02
C23U G36C G40A C46G | 0.09
C15U C23A G29C G30U U43C | 0.02
U20G G30U C46U | 0.54
G22A U28G G29A C31U | 1.67
C10A C13U G36C C37U C42A C46A | 0
G2A U34G G44U | 0.04
